PubChem BioAssay AID485294 (National Center for Advancing Translational Sciences (NCATS), 2010)
Hit rate of the full screen: of about 370,000 compounds, about 150 (0.041%) were called active. The shares of active, inactive and inconclusive entries below differ from those in the screen. Calls come from the whole dose curve; as a rule, active = well fitted inhibition curve with a large enough effect; inconclusive = small, poorly fitted or top-dose-only effect; inactive = flat fitted curve, though single readings scatter. No potency is given beside an inconclusive call; the fits are too rough.

biological target: Beta-lactamase (Escherichia coli (strain K12)) (UniProt P00811); assay: qHTS Inhibitors of AmpC Beta-Lactamase (assay with detergent); settings: AmpC hydrolysis of nitrocefin, absorbance 480 nm, 0.01% Triton; activity change, negative = inhibition: at 114 µM (top of the series); note: nearly all actives have a fitted effect of over 25% in size;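 for activity change, negative = inhibition: 0% = no-compound wells and -100% = no-enzyme wells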
In short: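 AmpC (5.3 nM in the dispensed reagent) in 20 mM phosphate pH 7.0 with 0.01% (detergent screen) or 0.0001% Triton X-100 was preincubated with compounds for 15 min at room temperature. Nitrocefin was then added from an 800 uM solution, and hydrolysis was followed at 480 nm.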
Potency is the fitted concentration of half-maximal effect; tags give direction and shape of the fitted curve.

Chain of UniProt P00811 (P00811 whole entry, looked up): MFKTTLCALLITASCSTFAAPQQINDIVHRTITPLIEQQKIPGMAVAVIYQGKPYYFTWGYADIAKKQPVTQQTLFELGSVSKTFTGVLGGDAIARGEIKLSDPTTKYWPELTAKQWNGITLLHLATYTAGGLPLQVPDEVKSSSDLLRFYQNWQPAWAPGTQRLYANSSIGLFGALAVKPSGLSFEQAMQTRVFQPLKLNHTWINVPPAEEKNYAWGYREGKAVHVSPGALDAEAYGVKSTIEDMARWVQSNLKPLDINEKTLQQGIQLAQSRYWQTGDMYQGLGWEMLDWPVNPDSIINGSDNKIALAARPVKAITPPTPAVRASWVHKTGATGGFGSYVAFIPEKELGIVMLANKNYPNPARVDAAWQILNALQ

Compound | Potency | activity change, negative = inhibition
Cc1ccc(S(=O)(=O)N2CCN(C(=O)c3sccc3C)CC2)cc1 | inconclusive [inhibitor, single point] | 
COc1ccc(S(=O)(=O)N2CCOCC2)cc1NC(=O)CCOc1ccc(C(C)(C)C)cc1 | inconclusive [inhibitor, partial curve, poor fit] | 
CCOC(=O)C1=C(COC(=O)COc2ccc(OCC)cc2)NC(=O)NC1C (stereo not drawn) | inconclusive [inhibitor, partial curve, poor fit] | 
CCn1c(=O)c(=O)[nH]c2cc(C(=O)NC(C)c3ccc(S(N)(=O)=O)cc3)ccc21 (stereo not drawn) | inconclusive [inhibitor, full curve, poor fit] | 
Cc1ccc(C)c(NC(=O)C2COc3ccccc3O2)c1 (stereo not drawn) | inconclusive [inhibitor, full curve, poor fit] | 
CCCc1nc2ccccc2c(=O)n1/N=C/c1ccc(O)c(O)c1 | inconclusive [inhibitor, single point] | 
Cc1ccnc2nc(C(=O)OCC(=O)Nc3ccc([N+](=O)[O-])cc3Br)nn12 | inconclusive [inhibitor, full curve, poor fit] | 
CN(C)C(=O)Oc1ccnc2cc(Cl)ccc12 |  | inactive: -8.48%
COC(=O)c1ccc(-c2ccc(C(c3c(C)[nH][nH]c3=O)c3c(C)[nH][nH]c3=O)o2)cc1 | inconclusive [inhibitor, single point] | 
Cc1ccc(S(=O)(=O)C2CS(=O)(=O)CC2O)cc1 (stereo not drawn) | inconclusive [inhibitor, partial curve, poor fit] | 
Cc1ccc(N(CC(=O)NCc2ccc(F)cc2)C(=O)c2csnn2)cc1C |  | inactive: 6.39%
CC(=O)N(C)c1nnc(-c2ccccn2)s1 | inconclusive [inhibitor, partial curve, poor fit] | 
COc1ccccc1C(=O)COC(=O)c1cc(=O)[nH]c2ccccc12 | inconclusive [inhibitor, full curve, poor fit] | 
Cc1ccc(OCCCCN2CCCCC2)c(C)c1 | inconclusive [inhibitor, partial curve] | 
CC(C)N1CCN(CCCc2ccccc2)CC1CCO (stereo not drawn) | inconclusive [inhibitor, full curve] | 
COCCNC(=O)CN1CCC(NC(=O)Nc2ccc(C(F)(F)F)cc2)CC1 | inconclusive [inhibitor, partial curve] | 
COc1ccc(C2N=C(N)N=C(N)N2c2ccccc2OC)cc1OC (stereo not drawn) | inconclusive [inhibitor, full curve] | 
CCCOC1(NC(=O)c2ccccc2)C(C)=CC(=O)C=C1C | inconclusive [inhibitor, partial curve] | 
Cn1c2ccccc2c(=O)c2cc(C#CC3(O)CCCCC3)ccc21 | inconclusive [inhibitor, partial curve, poor fit] | 
O=C(O)c1[nH]nc2c1COc1ccccc1-2 | inconclusive [inhibitor, partial curve, poor fit] | 
CCCOc1ccc(C2C(=O)N(C3CCCCCC3)CC(=O)N2Cc2ccco2)cc1OC (stereo not drawn) | inconclusive [inhibitor, single point] | 

Compound | Potency | activity change, negative = inhibition
COc1ccc(C2CC(c3ccc(F)cc3)Nc3nc(N)nn32)cc1 (stereo not drawn) | inconclusive [inhibitor, partial curve, poor fit] | 
COCCNC(=O)COc1cccc2c1OC(C)(C)C2 |  | inactive: 1.66%
O=C(CSCc1ccccc1Br)Nc1ccccc1 | inconclusive [inhibitor, full curve, poor fit] | 
CCOC(=O)c1cccc(NC(=O)CSc2nnc(COc3ccc(Cl)cc3)o2)c1 | inconclusive [inhibitor, partial curve, poor fit] | 
CC(=O)Nc1ccc(S(=O)(=O)NC(C)C(=O)OCCOc2ccc(F)cc2)cc1 (stereo not drawn) | inconclusive [inhibitor, full curve, poor fit] | 
COc1ccc(-c2nnc(SCC(=O)NC3CC3)o2)c(OC)c1 | inconclusive [inhibitor, partial curve] | 
O=C(NCc1ccc2c(c1)OCO2)c1ccc(N2C(=O)C3CCCCC3C2=O)cc1 (stereo not drawn) | inconclusive [inhibitor, single point] | 
O=C(NC1CCCCC1)c1ccc(N2CCOCC2)c([N+](=O)[O-])c1 | inconclusive [inhibitor, full curve, poor fit] | 
Cc1cc(SCC(=O)Nc2ccc(O)cc2)n2nc(C)c(-c3ccccc3)c2n1 |  | inactive: 0.0582%
COCCNS(=O)(=O)c1cc(OC)c(Cl)cc1Cl | inconclusive [inhibitor, full curve, poor fit] | 
O=C(NC1CCCC1)C1CCCN(S(=O)(=O)c2cccc3cccnc23)C1 (stereo not drawn) | inconclusive [inhibitor, full curve, poor fit] | 
CCOC(=O)c1cc(-c2ccc(C)cc2)n(CCC(=O)NCCc2ccc(C)cc2)c1C |  | inactive: 16.3%
Cc1cccc(C)c1NC(=O)CCC(=O)N1Cc2ccccc2Oc2ncccc21 |  | inactive: 24.7%
CC(=O)N1CCN(C(=O)COc2ccc(N(C)S(=O)(=O)c3cccs3)cc2)CC1 | inconclusive [inhibitor, full curve, poor fit] | 
Cc1c(CN(C)C(=O)CSc2nc(-c3ccco3)cc(C(F)(F)F)n2)cnn1C | inconclusive [inhibitor, full curve, poor fit] | 
Cc1ccc(C(=O)N(CCN2CCCCC2)CC2CCCN(C3CCCC3)C2)s1 (stereo not drawn) |  | inactive: 2.67%
O=C(O)CCSc1nc2ccccc2n1CCOc1ccccc1 | inconclusive [inhibitor, full curve, poor fit] | 
CN(c1ccccc1C(=O)NCC1CCCO1)S(C)(=O)=O (stereo not drawn) |  | inactive: 0.548%
Cc1ccc(C(=O)c2ccccc2C(=O)Nc2ccccc2)cc1 | inconclusive [inhibitor, partial curve, poor fit] | 
CC(NC(=O)CSc1nc2sc3c(c2c(=O)n1-c1ccccc1)CCCC3)c1ccccc1 (stereo not drawn) | inconclusive [inhibitor, partial curve] | 
CC(=O)Nc1ccc(S(=O)(=O)N2CCN(c3cnn(C)c(=O)c3Cl)CC2)cc1 | inconclusive [inhibitor, single point] | 

Compound | Potency | activity change, negative = inhibition
O=C(NN=C1CCCCC1)c1ccccc1OCc1ccc(F)cc1 | inconclusive [inhibitor, full curve] | 
CCOc1cc(S(=O)(=O)N2CCN(CC)CC2)ccc1Cl | inconclusive [inhibitor, full curve, poor fit] | 
N#Cc1ccc(NC(=O)C2Cc3ccccc3CN2S(=O)(=O)c2ccc(F)cc2)cc1 (stereo not drawn) |  | inactive: -7.59%
CC(C)N(c1ccccc1)c1ccc(NC(=O)COC(=O)CCN2C(=O)c3cccc([N+](=O)[O-])c3C2=O)cc1 | inconclusive [inhibitor, partial curve, poor fit] | 
Cc1c(C(=O)Nc2ccc3c(c2)OCO3)sc2nc(-c3ccccc3)cn12 | inconclusive [inhibitor, partial curve] | 
Cc1cc(F)ccc1S(=O)(=O)Nc1cc2c(C(=O)O)c(C)oc2c2ccccc12 |  | inactive: 23.6%
C[C@@H](NC(=O)C1(c2ccccc2)CCN(C(=O)OC(C)(C)C)CC1)C(=O)N[C@@H](C(=O)O)c1ccccc1 | inconclusive [inhibitor, full curve, poor fit] | 
O=C(O)C(CC1CCCCC1)N1CCS(=O)(=O)CC1 (stereo not drawn) | inconclusive [inhibitor, full curve] | 
CCOC(=O)c1ccc(NC(=O)c2ccc(NS(C)(=O)=O)cc2)cc1 | inconclusive [inhibitor, full curve, poor fit] | 
COc1ccc(NC(=S)NCC2CCN(c3ccc(OC)cc3)C2)cc1 (stereo not drawn) | inconclusive [inhibitor, single point] | 
FC(F)(F)c1cc(-c2ccco2)nc(-n2cnc3ccccc32)n1 | inconclusive [inhibitor, partial curve, poor fit] | 
CCOC(=O)c1c(C)oc2ccc(N(C(C)=O)S(=O)(=O)c3c(C)cc(C)cc3C)cc12 |  | inactive: -0.0226%
CCOc1ccc(NC(=O)CCn2c(=O)[nH]c3ccsc3c2=O)cc1 | inconclusive [inhibitor, full curve, poor fit] | 
COc1ccc(CC(=O)NCC2(N3CCCCC3)CCCCC2)cc1 | inconclusive [inhibitor, single point] | 
Cc1cccc(N2C(=O)C(CC(=O)Nc3cccc(F)c3)N(CCc3ccncc3)C2=O)c1 (stereo not drawn) | inconclusive [inhibitor, partial curve, poor fit] | 
CC(C)CN(C(=O)CN(C)C(=O)Cc1ccc(Cl)cc1)c1c(N)n(CC(C)C)c(=O)[nH]c1=O | inconclusive [inhibitor, full curve] | 
CC1CCCCC1NC(=O)CC1Oc2ccccc2NC1=O (stereo not drawn) | inconclusive [inhibitor, full curve, poor fit] | 
O=C(NNS(=O)(=O)c1ccc2ccccc2c1)c1cccnc1 | inconclusive [inhibitor, single point] | 
CCOC(=O)Cc1nnc(Nc2ccc(C)cc2C)c2ccccc12 |  | inactive: -1.03%
O=C(c1ccc2c(=O)n(CC3CCCO3)c(=S)[nH]c2c1)N1CCN(c2ccccc2)CC1 (stereo not drawn) |  | inactive: -1.89%
COc1cc(COCC(O)CN2CCN(CCN3C(=O)c4cccc5cccc(c45)C3=O)CC2)cc(OC)c1OC (stereo not drawn) | inconclusive [inhibitor, partial curve] | 
